{"source": "the supplement of paper PMC10126150", "note": "Sequences with one replicate were seen in a single cluster, so their values are uncertain.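 Further: ATP exposure 15 min at 22 °C before imaging.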"}
{"test_system": "ATP", "experiment": "switch fluorescence ratio, 500 uM ATP over buffer (Cy3 cluster intensity, sum of 5 cycles each) (fold (ratio)); higher = stronger signal-on switching upon ATP binding; sequences stand for … in TCGTCGGCAGCGTCAGATGTGTATAAGAGACAGTTTTTTTTTTTTTTTTTTTTTTTTT…TC", "details": "aptamer strand: ATP DNA aptamer (quencher-CACCTGGGGGAGTATTGCGGAGGAAGG + anchor), 100 nM annealed; ATP concentration: 500 uM; one replicate", "in_short": "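Clusters with intensities outside 100-1000 RFU were excluded. The remaining Cy3-labelled switching-strand clusters on a modified Illumina MiSeq flow-cell had been annealed to 100 nM quencher-labelled ATP aptamer and imaged in selection buffer, then after 15 min with 500 uM ATP at 22 °C, for five cycles separated by NaOH stripping and re-annealing. The fluorescence ratio, averaged per switch-domain sequence, is each cluster's summed target-cycle Cy3 intensity over its summed buffer-cycle Cy3 intensity.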"}
{"sequence": "GGACGCCGGA", "switch fluorescence ratio": 1.03}
{"sequence": "GGACGCGAGA", "switch fluorescence ratio": 1.16}
{"sequence": "GGACGCGAGG", "switch fluorescence ratio": 1.01}
{"sequence": "GGACGCGCAT", "switch fluorescence ratio": 1.15}
{"sequence": "GGACGGTCAA", "switch fluorescence ratio": 0.985}
{"sequence": "GGACGGTGGA", "switch fluorescence ratio": 1.02}
{"sequence": "GGACGGTGGT", "switch fluorescence ratio": 0.983}
{"sequence": "GGACGTCATT", "switch fluorescence ratio": 1.06}
{"sequence": "GGACTAAAGG", "switch fluorescence ratio": 1.04}
{"sequence": "GGACTACGAT", "switch fluorescence ratio": 1.02}
{"sequence": "GGACTAGATT", "switch fluorescence ratio": 0.989}
{"sequence": "GGACTCCTTC", "switch fluorescence ratio": 1.06}
{"sequence": "GGACTCGGCC", "switch fluorescence ratio": 0.99}
{"sequence": "GGACTCGTTA", "switch fluorescence ratio": 0.935}
{"sequence": "GGACTGAGCA", "switch fluorescence ratio": 1.06}
{"sequence": "GGACTGCATT", "switch fluorescence ratio": 1.06}
{"sequence": "GGACTGGACT", "switch fluorescence ratio": 1.01}
{"sequence": "GGACTTGAAC", "switch fluorescence ratio": 1.1}
{"sequence": "GGAGAAATGG", "switch fluorescence ratio": 0.945}
{"sequence": "GGAGAAGCAA", "switch fluorescence ratio": 1.55}
{"sequence": "GGAGAAGTCG", "switch fluorescence ratio": 0.972}
{"sequence": "GGAGACGTAC", "switch fluorescence ratio": 1.23}
{"sequence": "GGAGACGTAT", "switch fluorescence ratio": 1.06}
{"sequence": "GGAGATAAT", "switch fluorescence ratio": 1}
{"sequence": "GGAGATCGG", "switch fluorescence ratio": 1.03}
{"sequence": "GGAGATCGGA", "switch fluorescence ratio": 1.09}
{"sequence": "GGAGATTCAA", "switch fluorescence ratio": 1.01}
{"sequence": "GGAGCAACC", "switch fluorescence ratio": 3.75}
{"sequence": "GGAGCATAAA", "switch fluorescence ratio": 2.1}
{"sequence": "GGAGCCGTTC", "switch fluorescence ratio": 1.06}
{"sequence": "GGAGCGCAAG", "switch fluorescence ratio": 1.04}
{"sequence": "GGAGCGTGGG", "switch fluorescence ratio": 1.01}
{"sequence": "GGAGCTCTTC", "switch fluorescence ratio": 1.1}
{"sequence": "GGAGGAACAG", "switch fluorescence ratio": 1.03}
{"sequence": "GGAGGCAACC", "switch fluorescence ratio": 1.05}
{"sequence": "GGAGGGAAG", "switch fluorescence ratio": 0.991}
{"sequence": "GGAGGGCCGG", "switch fluorescence ratio": 0.984}
{"sequence": "GGAGGGCTCT", "switch fluorescence ratio": 1.02}
{"sequence": "GGAGGGGCT", "switch fluorescence ratio": 1.13}
{"sequence": "GGAGGGTTCA", "switch fluorescence ratio": 1.02}
{"sequence": "GGAGGTCCTG", "switch fluorescence ratio": 0.981}
{"sequence": "GGAGGTGGT", "switch fluorescence ratio": 1.01}
{"sequence": "GGAGGTTACC", "switch fluorescence ratio": 1.07}
{"sequence": "GGAGTACACG", "switch fluorescence ratio": 0.905}
{"sequence": "GGAGTAGTTA", "switch fluorescence ratio": 0.983}
{"sequence": "GGAGTATTCG", "switch fluorescence ratio": 1}
{"sequence": "GGAGTATTTC", "switch fluorescence ratio": 1.01}
{"sequence": "GGAGTCAGCA", "switch fluorescence ratio": 1.06}
{"sequence": "GGAGTCGCAT", "switch fluorescence ratio": 0.998}
{"sequence": "GGAGTGGGA", "switch fluorescence ratio": 0.976}
{"sequence": "GGAGTGTTAC", "switch fluorescence ratio": 1.01}
{"sequence": "GGAGTTCCCC", "switch fluorescence ratio": 1.01}
{"sequence": "GGATAAACGA", "switch fluorescence ratio": 0.977}
{"sequence": "GGATAAGGCT", "switch fluorescence ratio": 1.02}
{"sequence": "GGATAAGGTA", "switch fluorescence ratio": 0.978}
{"sequence": "GGATACTT", "switch fluorescence ratio": 0.997}
{"sequence": "GGATAGATG", "switch fluorescence ratio": 1.03}
{"sequence": "GGATATACAC", "switch fluorescence ratio": 1.08}
{"sequence": "GGATCACCAA", "switch fluorescence ratio": 1.02}
{"sequence": "GGATCAGCTC", "switch fluorescence ratio": 1.02}
{"sequence": "GGATCCAGAC", "switch fluorescence ratio": 1.01}
{"sequence": "GGATCGCTGT", "switch fluorescence ratio": 1.04}
{"sequence": "GGATCGTTCG", "switch fluorescence ratio": 0.969}
{"sequence": "GGATCTCGAG", "switch fluorescence ratio": 0.961}
{"sequence": "GGATCTTATA", "switch fluorescence ratio": 0.989}
{"sequence": "GGATGGATGC", "switch fluorescence ratio": 0.986}
{"sequence": "GGATTAACAC", "switch fluorescence ratio": 1.05}
{"sequence": "GGATTAGACT", "switch fluorescence ratio": 0.998}
{"sequence": "GGATTATCAC", "switch fluorescence ratio": 0.976}
{"sequence": "GGATTCTACT", "switch fluorescence ratio": 1.02}
{"sequence": "GGATTGATAG", "switch fluorescence ratio": 1.03}
{"sequence": "GGATTGCGCG", "switch fluorescence ratio": 1}
{"sequence": "GGATTGTGGG", "switch fluorescence ratio": 1.01}
{"sequence": "GGATTTCCCC", "switch fluorescence ratio": 1.02}
{"sequence": "GGATTTCTAG", "switch fluorescence ratio": 0.988}
{"sequence": "GGATTTGACT", "switch fluorescence ratio": 0.989}
{"sequence": "GGATTTTGCA", "switch fluorescence ratio": 0.98}
{"sequence": "GGCAAACGCT", "switch fluorescence ratio": 1.02}
{"sequence": "GGCAACAGAA", "switch fluorescence ratio": 1.02}
{"sequence": "GGCAATTGTT", "switch fluorescence ratio": 0.967}
{"sequence": "GGCACAAACA", "switch fluorescence ratio": 1.03}
{"sequence": "GGCACATTTG", "switch fluorescence ratio": 1.04}
{"sequence": "GGCACCCTAA", "switch fluorescence ratio": 0.976}
{"sequence": "GGCACTAATA", "switch fluorescence ratio": 1.03}
{"sequence": "GGCAGATATA", "switch fluorescence ratio": 1.02}
{"sequence": "GGCAGCGGGC", "switch fluorescence ratio": 0.977}
{"sequence": "GGCAGGGGCA", "switch fluorescence ratio": 1.42}
{"sequence": "GGCAGGGTAA", "switch fluorescence ratio": 1.01}
{"sequence": "GGCAGTGCCT", "switch fluorescence ratio": 0.977}
{"sequence": "GGCAGTGGGA", "switch fluorescence ratio": 1.03}
{"sequence": "GGCAGTTTCG", "switch fluorescence ratio": 0.976}
{"sequence": "GGCATAGCCA", "switch fluorescence ratio": 0.971}
{"sequence": "GGCATCTAAC", "switch fluorescence ratio": 1.02}
{"sequence": "GGCATGAAGT", "switch fluorescence ratio": 0.989}
{"sequence": "GGCATGTACT", "switch fluorescence ratio": 1.2}
{"sequence": "GGCATGTTTA", "switch fluorescence ratio": 1.03}
{"sequence": "GGCATGTTTT", "switch fluorescence ratio": 1.05}
{"sequence": "GGCATTTATC", "switch fluorescence ratio": 0.964}
{"sequence": "GGCCAAGGTT", "switch fluorescence ratio": 0.98}
{"sequence": "GGCCAATCCC", "switch fluorescence ratio": 1.07}
